A collection of fitness landscapes (doi:10.1016/j.celrep.2020.107928)
Whole data set: some 81,000 sequences, median “one-hybrid fitness for binding NBS DNA” near -0.1, cut for the highest 2% near 0.36. Some of the results follow.

B1: Caulobacter ParB omega fusion; a variant is named by its letters at X, in order, B8GW30 (parent)
chain: MESVVVGEPGMSEGRRGLGRGLSALLGEVDAAPAQAPGEQLGGSREAPIEILQRNPDQPRRTFREEDLEDLSNSIREKGVLQPILVRPSPDTAGEYQIVAGERAWRAAQRAGLKTVPIMVRELDDLAVLEIGIIENVQRADLNVLEEALSYKVLMEKFERTQENIAQTIGKSXSHVANXMRLLXLPDEVQSYLVSGELTAXHARAIAAAADPVALAKQIIEGGLSVRETEALARKAPNLSAGKSKGGRPPRVKDTDTQALESDLSSVLGLDVSIDHRGSTGTLTITYATLEQLDDLCNRLTRGI

Variants of: B1
Assay: one-hybrid fitness for binding NBS DNA (the Noc-binding site; scaled: cognate 1, non-cognate 0); higher = stronger binding
Settings: with NBS DNA site
How it was run: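 Fitness here means the log change in variant-to-wild-type read ratio between plasmids sequenced before and after selection. That scale was set so cognate equals 1 and non-cognate equals 0. The selection was a bacterial one-hybrid screen of Caulobacter ParB libraries, four specificity codons randomised, in E. coli USO carrying a HIS3 reporter with the site 19 bp from the promoter, grown 48 hours at 37°C on M9-minus-histidine with 0.1 mM IPTG and 5 mM 3-AT.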

| Variant | one-hybrid fitness for binding NBS DNA |
| --- | --- |
| RQPP | ≤ 0.2 |
| FRKH | ≤ 0.2 |
| HPCF | ≤ 0.2 |
| EGKW | ≤ 0.2 |
| RQWN | ≤ 0.2 |
| RMFI | ≤ 0.2 |
| QMPC | ≤ 0.2 |
| PCIL | ≤ 0.2 |
| CVYT | ≤ 0.2 |
| DGSG | ≤ 0.2 |
| CHSN | ≤ 0.2 |
| GPTF | ≤ 0.2 |
| EAAW | ≤ 0.2 |
| PSNY | ≤ 0.2 |
| TNIT | ≤ 0.2 |
| TLFI | ≤ 0.2 |
| CGCT | ≤ 0.2 |
| KRQD | ≤ 0.2 |
| NKRC | ≤ 0.2 |
| CNVF | ≤ 0.2 |
| NIAE | ≤ 0.2 |
| IDYT | ≤ 0.2 |
| ITDC | ≤ 0.2 |
| WANG | ≤ 0.2 |

| Variant | one-hybrid fitness for binding NBS DNA |
| --- | --- |
| LMFC | ≤ 0.2 |
| DAWG | ≤ 0.2 |
| VRLL | ≤ 0.2 |
| VGTS | ≤ 0.2 |
| RRMP | ≤ 0.2 |
| KMLN | ≤ 0.2 |
| AQFA | ≤ 0.2 |
| TGCS | ≤ 0.2 |
| DASV | ≤ 0.2 |
| IDQY | ≤ 0.2 |
| IVTG | ≤ 0.2 |
| LEWW | ≤ 0.2 |
| PHEL | ≤ 0.2 |
| YVGA | ≤ 0.2 |
| CRHN | ≤ 0.2 |
| SQLM | ≤ 0.2 |
| YKDH | 0.692 |
| LCAK | ≤ 0.2 |
| HGWF | ≤ 0.2 |
| DAHN | ≤ 0.2 |
| DHRK | ≤ 0.2 |
| CPYC | ≤ 0.2 |
| VASD | ≤ 0.2 |
| RPEW | ≤ 0.2 |

| Variant | one-hybrid fitness for binding NBS DNA |
| --- | --- |
| EDIG | ≤ 0.2 |
| NIMG | ≤ 0.2 |
| FSVS | ≤ 0.2 |
| YHPL | ≤ 0.2 |
| YPYF | ≤ 0.2 |
| RAWI | ≤ 0.2 |
| LASE | ≤ 0.2 |
| GPRS | ≤ 0.2 |
| PPTL | ≤ 0.2 |
| SHKL | ≤ 0.2 |
| KFKS | ≤ 0.2 |
| PMYW | ≤ 0.2 |
| WQYS | ≤ 0.2 |
| EVIG | ≤ 0.2 |
| EILV | ≤ 0.2 |
| ERSY | ≤ 0.2 |
| QVWG | ≤ 0.2 |
| KLSR | ≤ 0.2 |
| NQSI | ≤ 0.2 |
| VLKG | ≤ 0.2 |
| HCIL | ≤ 0.2 |
| WRSA | ≤ 0.2 |
| PLGE | ≤ 0.2 |
| KRNC | ≤ 0.2 |

| Variant | one-hybrid fitness for binding NBS DNA |
| --- | --- |
| RTSR | 0.576 |
| LFPA | ≤ 0.2 |
| PMHS | ≤ 0.2 |
| ITER | ≤ 0.2 |
| RCDC | ≤ 0.2 |
| MIKR | ≤ 0.2 |
| QNSH | ≤ 0.2 |
| QTDH | 0.335 |
| ITCG | ≤ 0.2 |
| RIYP | ≤ 0.2 |
| YMNL | ≤ 0.2 |
| CAGE | ≤ 0.2 |
| GCPV | ≤ 0.2 |
| TVPV | ≤ 0.2 |
| LPCK | ≤ 0.2 |
| DCMG | ≤ 0.2 |
| YYNR | ≤ 0.2 |
| VQIL | ≤ 0.2 |
| QNIA | ≤ 0.2 |
| TSEE | ≤ 0.2 |
| SSEL | ≤ 0.2 |
| ESMR | ≤ 0.2 |
| HWWR | ≤ 0.2 |
| GALT | ≤ 0.2 |

| Variant | one-hybrid fitness for binding NBS DNA |
| --- | --- |
| PDTL | ≤ 0.2 |
| DIQQ | ≤ 0.2 |
| PLMM | ≤ 0.2 |
| GMVS | ≤ 0.2 |
| QGLM | ≤ 0.2 |
| MYNR | ≤ 0.2 |
| HTQY | ≤ 0.2 |
| WSWR | ≤ 0.2 |
| GQEK | ≤ 0.2 |
| NNDS | ≤ 0.2 |
| QHIS | 0.258 |
| LQPA | ≤ 0.2 |
| APLR | ≤ 0.2 |
| TCES | ≤ 0.2 |
| LHLT | ≤ 0.2 |
| MMMY | ≤ 0.2 |
| VPNL | ≤ 0.2 |
| IKQR | ≤ 0.2 |
| NRTQ | ≤ 0.2 |
| VAFT | ≤ 0.2 |
| VDMV | ≤ 0.2 |
| APAL | ≤ 0.2 |
| HVNE | ≤ 0.2 |
| NTMS | ≤ 0.2 |

| Variant | one-hybrid fitness for binding NBS DNA |
| --- | --- |
| QQTY | ≤ 0.2 |
| AACS | ≤ 0.2 |
| DNNT | ≤ 0.2 |
| YHNT | ≤ 0.2 |
| RHAF | ≤ 0.2 |
| STYR | ≤ 0.2 |
| GTKS | ≤ 0.2 |
| CNGF | ≤ 0.2 |
| SDHM | ≤ 0.2 |
| GWIS | ≤ 0.2 |
| TEYL | ≤ 0.2 |
| GLRS | ≤ 0.2 |
| PATW | ≤ 0.2 |
| MDTR | ≤ 0.2 |
| GHRC | ≤ 0.2 |
| YGCA | ≤ 0.2 |
| RNLE | ≤ 0.2 |
| QRKY | 0.699 |
| DKES | ≤ 0.2 |
| ITMD | ≤ 0.2 |
| RSLG | ≤ 0.2 |
| QRCC | 0.389 |
| PISI | ≤ 0.2 |
| AASA | ≤ 0.2 |

| Variant | one-hybrid fitness for binding NBS DNA |
| --- | --- |
| IILP | ≤ 0.2 |
| EVTN | ≤ 0.2 |
| RKEE | ≤ 0.2 |
| DCGG | ≤ 0.2 |
| RSST | 0.426 |
| MTYV | ≤ 0.2 |
| LMRT | ≤ 0.2 |
| RNES | ≤ 0.2 |
| AAFL | ≤ 0.2 |
| VVPR | ≤ 0.2 |
| NTVP | ≤ 0.2 |
| GPLL | ≤ 0.2 |
| PWIG | ≤ 0.2 |
| LKWG | ≤ 0.2 |
| QESS | ≤ 0.2 |
| LVRK | ≤ 0.2 |
| DSVW | ≤ 0.2 |
| MQTS | ≤ 0.2 |
| YANT | ≤ 0.2 |
| IILS | ≤ 0.2 |
| NPRT | ≤ 0.2 |
| AVLR | ≤ 0.2 |
| PGYI | ≤ 0.2 |
| DITM | ≤ 0.2 |

| Variant | one-hybrid fitness for binding NBS DNA |
| --- | --- |
| SLTH | ≤ 0.2 |
| WMVG | ≤ 0.2 |
| YHKR | ≤ 0.2 |
| SEEG | ≤ 0.2 |
| CTTI | ≤ 0.2 |
| PAPN | ≤ 0.2 |
| ARCH | ≤ 0.2 |
| GPKV | ≤ 0.2 |
| VWAN | ≤ 0.2 |
| MLGL | ≤ 0.2 |
| VPLE | ≤ 0.2 |
| NFDM | ≤ 0.2 |
| IYIT | ≤ 0.2 |
| PRQG | ≤ 0.2 |
| ASWG | ≤ 0.2 |
| IHTP | ≤ 0.2 |
| THQK | 0.252 |
| LGYC | ≤ 0.2 |
| EYKT | ≤ 0.2 |
| MSEE | ≤ 0.2 |
| PAPM | ≤ 0.2 |
| RHNT | 0.508 |
| TPYR | ≤ 0.2 |
| RINF | ≤ 0.2 |

| Variant | one-hybrid fitness for binding NBS DNA |
| --- | --- |
| TMPS | ≤ 0.2 |
| LYRG | ≤ 0.2 |
| VDML | ≤ 0.2 |
| PHTK | ≤ 0.2 |
| YLVC | ≤ 0.2 |
| KVDG | ≤ 0.2 |
| RPTR | ≤ 0.2 |
| NRFE | ≤ 0.2 |
| QKGT | 0.566 |
| AQMC | ≤ 0.2 |
| PYAF | ≤ 0.2 |
| TDPN | ≤ 0.2 |
| KRCR | 0.55 |
| PTVF | ≤ 0.2 |
| ATLI | ≤ 0.2 |
| AQPR | ≤ 0.2 |
| RAVT | 0.237 |
| YFVV | ≤ 0.2 |
| MCVM | ≤ 0.2 |
| MPNT | ≤ 0.2 |
| GQLG | ≤ 0.2 |
| YAMG | ≤ 0.2 |
| KNCS | ≤ 0.2 |
| RKKD | ≤ 0.2 |

| Variant | one-hybrid fitness for binding NBS DNA |
| --- | --- |
| RWPG | ≤ 0.2 |
| SYHM | ≤ 0.2 |
| GEMK | ≤ 0.2 |
| KAYW | ≤ 0.2 |
| WSME | ≤ 0.2 |
| WATT | ≤ 0.2 |
| PHYI | ≤ 0.2 |
| MSVP | ≤ 0.2 |
| RVKD | ≤ 0.2 |
| SSCG | ≤ 0.2 |
| GMKR | 0.213 |
| ASSE | ≤ 0.2 |
| AGCS | ≤ 0.2 |
| ADCS | ≤ 0.2 |
| WSFT | ≤ 0.2 |
| LPAI | ≤ 0.2 |
| MVLC | ≤ 0.2 |
| DLIE | ≤ 0.2 |
| WHVT | ≤ 0.2 |
| AAAD | ≤ 0.2 |
| QVDI | ≤ 0.2 |
| ISDT | ≤ 0.2 |
| TVNL | ≤ 0.2 |
| TVPF | ≤ 0.2 |

| Variant | one-hybrid fitness for binding NBS DNA |
| --- | --- |
| LEPP | ≤ 0.2 |
| YAKG | ≤ 0.2 |
| HKFG | ≤ 0.2 |
| DTIT | ≤ 0.2 |
| KCMY | ≤ 0.2 |
| DSYL | ≤ 0.2 |
| VLRH | ≤ 0.2 |
| WELE | ≤ 0.2 |
| HRVF | ≤ 0.2 |
| SWCC | ≤ 0.2 |
| QRSY | 0.477 |
| CDKR | ≤ 0.2 |
| PSTG | ≤ 0.2 |
| LSCI | ≤ 0.2 |
| QQRD | 0.286 |
| CTDR | ≤ 0.2 |
| GKRL | ≤ 0.2 |
| TVDW | ≤ 0.2 |
| NHAR | ≤ 0.2 |
| QLVG | ≤ 0.2 |
| IFKD | ≤ 0.2 |
| LLVI | ≤ 0.2 |
| MDKR | ≤ 0.2 |
| QIWA | ≤ 0.2 |

| Variant | one-hybrid fitness for binding NBS DNA |
| --- | --- |
| RHCC | ≤ 0.2 |
| DRHK | ≤ 0.2 |
| NGFT | ≤ 0.2 |
| SVLG | ≤ 0.2 |
| PMWM | ≤ 0.2 |
| GAVD | ≤ 0.2 |
| EQLL | ≤ 0.2 |
| MKNR | ≤ 0.2 |
| ETQL | ≤ 0.2 |
| VVYT | ≤ 0.2 |
| VSSM | ≤ 0.2 |
| PGLF | ≤ 0.2 |
| KEPK | ≤ 0.2 |
| HWAA | ≤ 0.2 |
| SWEW | ≤ 0.2 |
| SFPP | ≤ 0.2 |
| AHDC | ≤ 0.2 |
| RDLI | ≤ 0.2 |
| VAVR | ≤ 0.2 |
| VTTM | ≤ 0.2 |
| TMRA | ≤ 0.2 |
| NLMG | ≤ 0.2 |
| SNDI | ≤ 0.2 |
| EIMC | ≤ 0.2 |

| Variant | one-hybrid fitness for binding NBS DNA |
| --- | --- |
| QGPI | ≤ 0.2 |
| ANEK | ≤ 0.2 |
| ADDM | ≤ 0.2 |
| VTAL | ≤ 0.2 |
| QSTP | ≤ 0.2 |
| YAKV | ≤ 0.2 |
| TVWH | ≤ 0.2 |
| APKQ | ≤ 0.2 |
| EYFF | ≤ 0.2 |
| KKVR | ≤ 0.2 |
| YRSY | ≤ 0.2 |
| PFVV | ≤ 0.2 |
| LGCS | ≤ 0.2 |
| FALI | ≤ 0.2 |
| RPYM | ≤ 0.2 |
| QTMH | 0.263 |
| AMSM | ≤ 0.2 |
| IEIF | ≤ 0.2 |
